The list shows a part of the results.
T1: UNK ZnF1-6 (called full-length) (human, UniProt Q9C0B0 30-357)
T1 sequence: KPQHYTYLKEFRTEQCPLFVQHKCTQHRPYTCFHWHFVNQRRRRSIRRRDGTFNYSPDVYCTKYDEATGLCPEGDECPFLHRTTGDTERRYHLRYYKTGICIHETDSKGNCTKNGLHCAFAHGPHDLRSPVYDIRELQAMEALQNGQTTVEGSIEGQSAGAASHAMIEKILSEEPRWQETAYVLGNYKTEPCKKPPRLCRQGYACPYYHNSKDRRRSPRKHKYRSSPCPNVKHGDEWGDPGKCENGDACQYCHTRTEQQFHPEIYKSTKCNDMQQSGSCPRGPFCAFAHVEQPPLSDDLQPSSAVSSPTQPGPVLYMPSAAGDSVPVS

B1: chrX:21994482:21994713:+|3pUTR|ENSG00000102172|msi1|FALSE|unique (ssRNA)
RNA: GGGAGUUCUACAGUCCGACGAUCCAGCUGAAGGAUGGUUAGACAGCACAGCGAAGACUGCUAAAUGCACUGACCCCCCCCAUUAGAAUGUGAUUUUUGUUCCUUUUUAUUUCUCUGUGGGCUUUUGUUUUUGUUUUUGUUUUGCAACAGAGGAUUGAGCAUCA
B2: chr12:88196262:88196297:+|3pUTR|ENSG00000139324|msi1_unk|FALSE|overlapping (ssRNA)
RNA: GGGAGUUCUACAGUCCGACGAUCUGUAUACUUGUUUUUAACUUUAAAUGUAAUUUUUAAUCAGGUAAAGUUUGACACAUGUAUAGCUACAUACACACAUUUUUAAUGGUGCUCAUAUAUACUGUAUUUUUUGUUGUUUAGUUUCAACAGAGGAUUGAGCAUCA
B3: chr1:85021069:85021276:-|CDS|ENSG00000055732|control|control|control (ssRNA)
RNA: GGGAGUUCUACAGUCCGACGAUCGAUAUGUUUGCCACGUUUGCAAAAAUGCAGCAAAAAAGUUACUUAGUCUGGCUGUUUAGUAGAAUUUACCUCUACUCAUUCAUCAGCCUCUUUAUAUAUAUGAUUUUAAGUCUUUUCAUUCAACAGAGGAUUGAGCAUCA
B4: chr15:52755052:52757554:-|three_prime_utr|ENSG00000169856|control|control|control (ssRNA)
RNA: GGGAGUUCUACAGUCCGACGAUCAAACCUCGGUGGAAAAGCUUUAAAUUAAAAAAAAUUUUUAAAAGACCAGGACCUCAAGAUAGCAGGUUUAUACUUAGAAAUAUUUGAAGAAAAAAAAGCGUUAUUUAUAGUCCAAAGAAACAACAGAGGAUUGAGCAUCA
B5: chr19:2853326:2853433:+|CDS|ENSG00000186300|unk|FALSE|unique (ssRNA)
RNA: GGGAGUUCUACAGUCCGACGAUCCAAUGUGGGAAAACUUUCAAUUGGCCCAUAUCUUUACGAAAACAUAUGAGAACACAUACUAGAGAGAAACCCUAUGAAUGUAAGCAGUGUGGGAAAGCCUUCAGCUUGUCUGCUUGCUUUCAACAGAGGAUUGAGCAUCA
B6: chr6:152987361:152990084:-|three_prime_utr|ENSG00000112031|control|control|control (ssRNA)
RNA: GGGAGUUCUACAGUCCGACGAUCAGAUUAUCUACUGGAUGAACUUGUACAGUCAUUGAAGGAAUACGCCGAUUAUGAAUCUUUAGUAGAAAUUAUUUCCCAAAAAGUUUAAGUUGAUUUGUUAUUUAUAGACUUUCGUAGCUUCAACAGAGGAUUGAGCAUCA
B7: chr14:59746188:59746291:-|CDS|ENSG00000139970|unk|FALSE|unique (ssRNA)
RNA: GGGAGUUCUACAGUCCGACGAUCCUGGGUACACCCGGCCCCUCCUUACCAGAUGUGCCUGGGAUAGAGUCUCGUGGCUUAUUUAGUUCUGAUUCUGGAAUAGAGAUGACUCCUGCAGAGUCCACGGAAGUGAACAAGAUCUUACAACAGAGGAUUGAGCAUCA
B8: ENSG00000124766:be:win_2751|3pUTR|ENSG00000124766|bound_else_gene|NA|bound_elsewhere_windowed (ssRNA)
RNA: GGGAGUUCUACAGUCCGACGAUCUUCUCAGUGUGUGUGUUUAUUCCUUAUAGGUGUAAAUGAGAAGACGUGUUUUUUUCCUUCACCGAUGCUCCAUCCUCGUAUUUCUUUUUCCUUGUAAAUGUAAUCAGAUGCCAUUUUAUACAACAGAGGAUUGAGCAUCA
B9: chr5:128187618:128187661:+|3pUTR|ENSG00000064651|msi1_unk|total|mutant (ssRNA)
RNA: GGGAGUUCUACAGUCCGACGAUCUCCUUUAUAAGUCAUUAAAAUAAUGUUUCAUCAAAUGGUUAAAUGGACCACUGGUUUCUCCGAGAAAUGUUUUCCGGCUUAAUUCAUUCAAUUGUCAAGUACACUCCGUCUUAAUACACUCAACAGAGGAUUGAGCAUCA
B10: chr9:104535772:104536723:-|CDS|ENSG00000204246|control|control|control (ssRNA)
RNA: GGGAGUUCUACAGUCCGACGAUCGACAAGCUCAUUUCUCUGUUUUAUGGGGUAGUGACACCCAUGCUGAAUCCUAUACUCUAUAGCUUGAGAAAUAAGGAUGUAAAAGCUGCUGUAAAAUAUUUGCUGAACAAAAAACCAAUUCAACAGAGGAUUGAGCAUCA
B11: chr17:43640388:43641946:-|three_prime_utr|ENSG00000005102|control|control|control (ssRNA)
RNA: GGGAGUUCUACAGUCCGACGAUCCCUCUCCACAUCUUUCCCUGACUCUUGGAUAUGAAACUGCCCAGCAUUCCUGGGAGUCUUAGGAUUUUCUAGGAAGUUCUGUCCAGCCUCUUAGCAGCCUCUUCCCUAGGGCCUUUGCUCCAACAGAGGAUUGAGCAUCA
B12: chr17:58090057:58090109:+|3pUTR|ENSG00000264364|msi1_unk|FALSE|overlapping (ssRNA)
RNA: GGGAGUUCUACAGUCCGACGAUCGGGUAGGAUUAGCUUGAAUCUUUUUUUUCUUUACAUUUUUCUCCUGUCUGCUCCCUGCUUAGCCCUCAGUUUCCUCAUUCCUCUGGAGUUCUCUUAGAGCAGCCCCUGUUGUUAGUUGGCCAACAGAGGAUUGAGCAUCA
B13: chr5:149847740:149847841:+|3pUTR|ENSG00000155846|unk|FALSE|unique (ssRNA)
RNA: GGGAGUUCUACAGUCCGACGAUCAUUGAACAAAGCUGCUUCUGUCUGUGAGUUUCCAUGGUGUUGACGUUCCACUGCCACAUUAGUGUCCUCGCUUCCAACGGGUUGUCCCGGGUGCACCUCGAAGUGCCGGGUCCGUCACCCCAACAGAGGAUUGAGCAUCA
B14: chr1:113706032:113706133:-|CDS|ENSG00000116793|unk|FALSE|unique (ssRNA)
RNA: GGGAGUUCUACAGUCCGACGAUCCAAUGCCUAUCAGCAAGGAGUAGGUUAUCAGAUGCUGGGAAAUGUUGUCACUAUUGGAUUAGCAUUUUUUCCAUUCUUACAUCGACUUUUCCGUGAGAAGAGCCUUGACCAACUAAAGUCCAACAGAGGAUUGAGCAUCA
B15: ENSG00000051108:stop:overlap|stop_codon|ENSG00000051108|stop_codon|NA|stop_codon (ssRNA)
RNA: GGGAGUUCUACAGUCCGACGAUCAUGGGUGGCUUCAGCUUUCCUGGUUCCAGCAGAUAUAUGCACGACAGUACUACAUGCAAUAGAAGGCACUGAUCCUGAAACUGAAGACCCCAACCACCUCCCUCCAGACAGGGAUGUACUCAACAGAGGAUUGAGCAUCA
B16: ENSG00000070961:be:win_1101|CDS|ENSG00000070961|bound_else_gene|NA|bound_elsewhere_windowed (ssRNA)
RNA: GGGAGUUCUACAGUCCGACGAUCAAAACUGGCUGUUCAGAUUGGCAAAGCAGGUCUGUUGAUGUCUGCCAUCACAGUUAUCAUUCUAGUAUUAUAUUUUGUCAUUGACACCUUCUGGGUUCAGAAAAGACCAUGGCUUGCUGACAACAGAGGAUUGAGCAUCA
B17: ENSG00000070961:be:win_1501|CDS|ENSG00000070961|bound_else_gene|NA|bound_elsewhere_windowed (ssRNA)
RNA: GGGAGUUCUACAGUCCGACGAUCCCUGAACCAGAAGCUAUUCCACCAAAUAUUUUGUCCUAUCUUGUAACAGGAAUUUCUGUGAAUUGUGCUUAUACAUCAAAAAUAUUGCCACCAGAGAAAGAGGGUGGAUUACCUCGUCACCAACAGAGGAUUGAGCAUCA
B18: ENSG00000198589:be:win_4751|CDS|ENSG00000198589|bound_else_gene|NA|bound_elsewhere_windowed (ssRNA)
RNA: GGGAGUUCUACAGUCCGACGAUCGCACUUUAACUACGGCAUCAGUGGAAGAAUCUGAAAGCACAUCAUCUGCUCGAAGGAGGGACUCAGGCAUUGGGGAAGAAACAGCCACUGGUUUAGGAAGCCAUGUGGAAGUAACUCCUCCAACAGAGGAUUGAGCAUCA
B19: ENSG00000150753:stop:overlap|stop_codon|ENSG00000150753|stop_codon|NA|stop_codon (ssRNA)
RNA: GGGAGUUCUACAGUCCGACGAUCUCAGGAUGAUGAAAUUGGAGAUGGAACCACAGGAGUGGUUGUCCUGGCUGGUGCCUUGUUAGAAGAAGCGGAGCAAUUGCUAGACCGAGGCAUUCACCCAAUCAGAAUAGCCGAUGGCUACAACAGAGGAUUGAGCAUCA
B20: chr1:119916538:119916684:-|CDS|ENSG00000134250|unk|total|mutant (ssRNA)
RNA: GGGAGUUCUACAGUCCGACGAUCAGAGACACCUCUGUUUCUUGCUGCCCGGGAGGGGAGCUAUGAAGCAGCCAAGAUCCUGUCCGACCAUUUUGCCAAUCGAGACAUCACAGACCAUAUGGAUCGUCUUCCCCGGGAUGUGGCCAACAGAGGAUUGAGCAUCA
B21: chr1:100520103:100520216:+|3pUTR|ENSG00000079335|unk|FALSE|unique (ssRNA)
RNA: GGGAGUUCUACAGUCCGACGAUCUUACACAUGUGCCUACAUAGACACACCAAGAAGUGGAUGUAUAUAAUAUAGAAAGUAUAUAGCAAAGUAAUUUUACUCUGAUAAUAAAAAUUGUUUGACAUGUAUUUUGUUAUGAAUAGUCAACAGAGGAUUGAGCAUCA
B22: chr4:48498090:48498191:-|3pUTR|ENSG00000075539|msi1|FALSE|bound_elsewhere (ssRNA)
RNA: GGGAGUUCUACAGUCCGACGAUCAGGAAGCCUGAAGACUGACUACCAAAACAUGCAAUAUACUUAUUCACUGUCUAAGUCUGUAGUAUAACAUGAACUGGAGUCUCUAUCCUUUUCUAAAAUCGCAUUUUGUAAGAAAAGAAACAACAGAGGAUUGAGCAUCA

Target: T1, UNK ZnF1-6 (called full-length)
Assay: nsRBNS (natural sequence RNA bind-n-seq); RBNS binding buffer (assumed for nsRBNS): 25 mM Tris pH 7.5, 150 mM KCl, 3 mM MgCl2, 0.01% Triton X-100, 500 ug/ml BSA, 20 U/ml SUPERase-In, 4 C; UNK is unkempt and MSI1 is Musashi-1; names of the RNAs are library labels; protein concentration not given here; high values mean tight binding

Binder	binding signal [enrichment R]
B1	2.3
B2	3.56
B3	1.95
B4	4.65
B5	0.336
B6	1.84
B7	0.651
B8	0.717
B9	0.678
B10	0.451
B11	0.973
B12	4.34
B13	0.845
B14	0.479
B15	0.715
B16	5.64
B17	0.435
B18	0.511
B19	1.35
B20	0.755
B21	1.45
B22	0.311

Reference: paper PMC12136788
